Data taken from paper PMC5505701, “Somatostatin binds to the human amyloid β peptide and favors the formation of distinct oligomers” (eLife, 2017).

These substances were tested on oligomeric Aβ1-42 (biotin-oAβ1-42 bait). Conditions: Experiment I, biotin-oAbeta 1-42 (TMT 126) versus biotin (TMT 131), replicate channel 126.

| Substance | 126/131 |
| --- | --- |
| 14-3-3 protein epsilon: human brain protein | 1.520 |

Same assay, conditions: Experiment I, biotin-oAbeta 1-42 (TMT 128) versus biotin (TMT 131), replicate channel 128

| Substance | 128/131 |
| --- | --- |
| 14-3-3 protein epsilon: human brain protein | 1.029 |

Same assay, conditions: Experiment I, biotin-oAbeta 1-42 (TMT 130) versus biotin (TMT 131), replicate channel 130

| Substance | 130/131 |
| --- | --- |
| 14-3-3 protein epsilon: human brain protein | 1.646 |

Same assay, conditions: enrichment relative to biotin-only saturated negative control matrix; human frontal lobe digitonin extract; TMT, three biological replicates; pH 8.0, 4°C overnight

| Substance | Experiment I B-oAβ1-42/B Ratio |
| --- | --- |
| 2,4-dienoyl-CoA reductase, mitochondrial: human brain protein | 7.74 |
| ATP synthase subunit beta, mitochondrial: human brain protein | 8.59 |
| Carbohydrate kinase domain-containing protein: human brain protein | 6.95 |
| Cathepsin D: human brain protein | 5.52 |
| Cofilin-1: human brain protein | 4.67 |
| Dihydropyrimidinase-related protein 1: human brain protein | 5.21 |
| Dihydropyrimidinase-related protein 3: human brain protein | 5.13 |
| DnaJ homolog subfamily A member 2: human brain protein | 5.28 |
| Interleukin enhancer-binding factor 2: human brain protein | 4.98 |
| Isocitrate dehydrogenase [NADP] cytoplasmic: human brain protein | 8.20 |
| Pyruvate kinase isozymes M1/M2: human brain protein | 7.04 |
| Ras-related protein Rab-1A: human brain protein | 10.52 |
| Transforming protein RhoA: human brain protein | 7.48 |
| Tubulin beta-3 chain: human brain protein | 5.39 |
| Ubiquitin carboxyl-terminal hydrolase L1: human brain protein | 7.49 |

Same assay, conditions: experiment not given

| Substance | oAβ1-42 binding observed (in words) |
| --- | --- |
| clusterin: human brain protein, known Aβ interactor | oAβ1-42 binders observed in this work |
